Out of some 380,000 compounds screened, about 4,000 (1.1%) were called active. The shares of active, inactive and inconclusive entries below differ from those in the screen. The call rests on the fitted dose curve; in most records, active means well fitted activation curve with a large enough effect; inconclusive means small, poorly fitted or top-dose-only effect; inactive means no such curve, though single readings can be large or run the other way. Potencies beside an inconclusive call are fits to weak or partial responses and may not hold up.
Assay: qHTS Assay to Identify Small Molecule Activators of BRCA1 Expression; further: nearly all actives have a fitted effect of over 80% in size
Details: MCF7-BRCA1-FFLuc reporter, luminescence, 48 h; activation: at 46.1 µM (top of the series), scaled: vehicle 0%, 10 µM genistein 100% unless noted
Outline: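 Activators of BRCA1 expression were detected as increased firefly luciferase luminescence in engineered MCF7 cells after 48 h compound incubation. Signals were scaled to genistein 10 microM as full activation.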
Potency means the concentration at half of the fitted maximal effect; tags describe the fitted curve by direction and shape.

| Structure (SMILES) | Potency | activation |
| --- | --- | --- |
| Cc1noc(N)c1C(=O)Nc1ccc(C(C)(C)C)cc1 | inconclusive: 2.51 µM [activator, full curve, poor fit] |  |
| Cc1ccn2c(CN3CCOCC3)c(-c3ccccc3)nc2c1 | inconclusive: 15.8 µM [activator, partial curve, poor fit] |  |
| Cc1ccc(S(=O)(=O)NNC(=O)c2sc3nc(C)cc(C)c3c2-n2cccc2)cc1 |  | inactive: 0% |
| Brc1ccc(-c2nnc(-c3ccco3)o2)cc1 | inconclusive: 2.51 µM [activator, partial curve, poor fit] |  |
| CCCC/C=C1\CCc2c([nH]c3ccccc23)C1=O | active: 1.41 µM |  |
| Cc1cc(C)cc(OC(=O)c2cc(-c3ccc(Cl)cc3)on2)c1 |  | inactive: 0% |
| C=CCn1c(SCC(=O)N(CC)C2CCS(=O)(=O)C2)nc2scc(-c3ccccc3)c2c1=O (stereo unspecified) |  | inactive: -21% |
| CCOC(=O)c1c(NC(=O)c2noc(C)c2[N+](=O)[O-])sc(C(C)=O)c1C |  | inactive: -42.2% |
| O=C(CSc1ncccn1)NCc1ccccc1Cl | inconclusive: 20 µM [activator, partial curve, poor fit] |  |
| Cc1nc(-c2ccccc2)sc1C(=O)/C=C/N(C)C | active: 11.2 µM |  |
| O=C(Cc1ccc(Cl)cc1)Nc1ccccc1N1CCN(C(=O)c2ccccc2)CC1 |  | inactive: -38.7% |
| CC(=O)Nc1ccc(Br)c(Cl)c1 |  | inactive: -9.53% |
| O=C(Nc1nnc(-c2ccccc2)s1)c1ccc(F)cc1 | inconclusive: 2.51 µM [activator, partial curve, poor fit] |  |
| CC1(C)CCC(=O)N2CC[C@H]3C[C@H](OC(=O)Nc4ccc5c(c4)OCO5)C[C@@H]1[C@H]32 | active: 11.2 µM |  |
| C/C(Cl)=C/CSc1nn2c(=O)c3ccccc3nc2s1 | inconclusive: 7.94 µM [activator, partial curve, poor fit] |  |
| O=[N+]([O-])c1ccc2nc(-c3ccncc3)[nH]c2c1 | inconclusive: 17.8 µM [activator, single point] |  |
| CC/C(=N\Nc1nncc2ccccc12)c1ccc(F)cc1 | inconclusive: 2.51 µM [activator, full curve, poor fit] |  |
| CCSc1nnc(NC(=O)CSc2nc3c(cc2C#N)CCCC3)s1 | inconclusive: 2 µM [activator, full curve, poor fit] |  |
| Cc1cnc(NC(=O)c2cc3c(s2)CCCC3)s1 |  | inconclusive: -46.9% [activator] |
| COc1ccc(NC(=S)N2CCN(c3ccc([N+](=O)[O-])cc3)CC2)cc1OC |  | inactive: -5.32% |
| O=C(CCS(=O)(=O)c1ccc(Cl)cc1)Nc1nc(-c2ccncc2)cs1 |  | inactive: -37.5% |
| O=[N+]([O-])c1nn(-c2ccc3c(c2)OCCO3)n(O)c1=NCCC1=CCCCC1 | active: 4.47 µM |  |
| Cc1[nH]n(-c2ccccc2)c(=O)c1C(c1ccccc1[N+](=O)[O-])C(C#N)C#N (stereo unspecified) |  | inactive: -29.1% |
| Clc1cc2nc3ccccn3c2cc1Cl | inconclusive: 11.2 µM [activator, partial curve, poor fit] |  |
| COc1ccc(CCC(=O)Nc2nc3ccccc3[nH]2)cc1 | inconclusive: 2.82 µM [activator, full curve, poor fit] |  |
| COc1ccc(-c2csc(-n3ncc(C(=O)O)c3C(F)(F)F)n2)cc1 | inconclusive: 11.2 µM [activator, partial curve, poor fit] |  |

| Structure (SMILES) | Potency | activation |
| --- | --- | --- |
| CCN(CC(=O)NC(C)C)C(=O)C(CCSC)NC(=O)c1cccc(C)c1 (stereo unspecified) |  | inactive: 13.5% |
| O=C(Cc1ccc([N+](=O)[O-])cc1)N1CCN=C1SCc1ccccc1 |  | inactive: -71.1% |
| CCCC1=C(C(=O)OCC)C(/C=C/c2ccccc2)n2ncnc2N1 (stereo unspecified) |  | inactive: -71% |
| O=C(CCSc1ccccc1)N1CCCC1 | inconclusive: 3.16 µM [activator, full curve, poor fit] |  |
| CCn1c(C)nc2cc(C(=O)N/N=C/c3ccccc3)ccc21 | inconclusive: 7.94 µM [activator, partial curve, poor fit] |  |
| c1ccc(CSCc2cn3ccsc3n2)cc1 | active: 8.91 µM |  |
| Cc1ccn2cc(-c3cccc(NS(C)(=O)=O)c3)nc2c1 | inconclusive: 7.94 µM [activator, partial curve, poor fit] |  |
| Cc1c(-c2ccccc2)[nH]n2c(=O)c3c(nc12)CCCC3 | active: 3.16 µM |  |
| COc1cc(O)c(CC=C(C)C)c(O)c1C(=O)CCc1ccc(O)cc1 |  | inactive: -35% |
| Cc1cc(C)cc(NC(=O)CSc2nc3c([nH]c4ccccc43)c(=O)n2-c2ccc(F)cc2)c1 |  | inactive: -3.88% |
| Cc1cccc(CNC(=O)c2ccc3nc(Cc4ccccc4F)oc3c2)n1 | active: 12.6 µM |  |
| Cc1cccc(N(C(=O)Nc2ccccc2)C2=NCC(C)S2)c1 (stereo unspecified) | inconclusive: 11.2 µM [activator, partial curve, poor fit] |  |
| CN(C)c1ccc(NC(=O)c2ccc3nc[nH]c3c2)cc1 | active: 12.6 µM |  |
| N#CCc1nc2ccc(S(=O)(=O)N3CCOCC3)cc2s1 |  | inactive: 0% |
| Cc1ccc(SC(C)C(=O)Nc2ccncc2)cc1 (stereo unspecified) |  | inactive: 3.27% |
| c1ccc(-n2ncc3c(NCc4cccs4)ncnc32)cc1 | inconclusive: 1.78 µM [activator, full curve, poor fit] |  |
| O=C(/C=C/c1ccc(F)cc1)Nc1ccc(S(=O)(=O)N2CCOCC2)cc1 |  | inactive: -15.3% |
| COc1cc(C)ccc1OCc1cc(C(=O)NC2CCOCC2)no1 | inconclusive: 20 µM [activator, single point] |  |
| Cc1cccc(NC(=O)Cc2c(F)cccc2Cl)n1 | inconclusive: 12.6 µM [activator, partial curve, poor fit] |  |
| Brc1ccccc1-n1nnc(-c2cnc3ccccc3c2)n1 | inconclusive: 11.2 µM [activator, partial curve, poor fit] |  |
| O=C(CCc1nnc(CCCc2ccccc2)o1)NCCc1ccccc1 |  | inactive: 4.41% |
| COc1ccc2nc3oc(C(=O)N4CC(C)CC(C)C4)cc3cc2c1 (stereo unspecified) |  | inactive: 65.2% |
| CCOC(=O)/C=C/[C@H]1Cc2ccccc2CO1 |  | inactive: 3.59% |
| COc1cccc2cc(-c3n[nH]c(=S)n3C)oc12 |  | inactive: 1.58% |
| Cc1ccc(CSc2nc3[nH]ncc3c(=O)[nH]2)cc1 | inconclusive: 8.91 µM [activator, partial curve, poor fit] |  |
| C/C(=N\NC(=O)c1ccc(Br)cc1)c1ccccc1 | inconclusive: 2 µM [activator, partial curve, poor fit] |  |

| Structure (SMILES) | Potency | activation |
| --- | --- | --- |
| O=C1C=CC(=Nc2ccc3c(c2)Cc2cc(F)ccc2-3)O1 | inconclusive: 14.1 µM [activator, partial curve, poor fit] |  |
| CCOC(=O)c1ccc(NC(=O)c2ccccc2C)cc1 | inconclusive: 6.31 µM [activator, full curve, poor fit] |  |
| Cc1cc(NC(=O)c2cccc(F)c2)ncc1NC(=O)c1ccco1 | inconclusive: 1.26 µM [activator, partial curve, poor fit] |  |
| Cc1ccc(-c2cc(C(F)F)n3ncc(C(=O)Nc4c(C)nn(Cc5c(Cl)cccc5Cl)c4C)c3n2)cc1 |  | inactive: -21.1% |
| COc1cc2cc(C)c(SCC(=O)N3CCN(C(=O)c4ccco4)CC3)nc2cc1OC |  | inactive: -19.2% |
| CCc1cccc(CC)c1NC(=O)C1CSC2(C)CCC(=O)N12 (stereo unspecified) |  | inactive: -18.4% |
| O=C(Nc1ccccc1N1CCCCC1)C1CCN(S(=O)(=O)c2ccccc2C(F)(F)F)CC1 |  | inactive: -44.3% |
| CCCCCCOc1ccc(/C(N)=N/O)cc1 | active: 7.08 µM |  |
| c1ccc(CSc2ccc(-c3cccnc3)nn2)cc1 | inconclusive: 12.6 µM [activator, partial curve, poor fit] |  |
| Nc1[nH]n(-c2ccccc2)c(=O)c1N=Nc1ccccc1[N+](=O)[O-] | inconclusive: 2.24 µM [activator, full curve, poor fit] |  |
| CC(C)CC(=O)Nc1ncnc2c1C(=O)CC(C)(C)C2 | inconclusive: 22.4 µM [activator, single point] |  |
| CC(=O)C1=C(O)C(=O)N(c2ccc(Br)cn2)C1c1ccc(Br)cc1 (stereo unspecified) | inconclusive: 35.5 µM [activator, single point] |  |
| Cc1ccc2nc(SCC(=O)NC3CCCc4ccccc43)[nH]c2c1 (stereo unspecified) |  | inactive: -54.3% |
| CCCN(CCC)C(=O)c1oc2ccccc2c1NC(=O)Cc1cccc(OC)c1 |  | inactive: 0.583% |
| COc1ccc(C2Nc3ccccc3C(=O)N2Cc2ccccc2)cc1COc1ccc([N+](=O)[O-])cc1 (stereo unspecified) |  | inactive: 0% |
| N#Cc1ccccc1OCC(=O)NC(=O)NC1CCS(=O)(=O)C1 (stereo unspecified) | inconclusive: 15.8 µM [activator, partial curve, poor fit] |  |
| Cc1ccc2nc(-c3ccc(NC(=O)C4CCCO4)cc3)[nH]c2c1 (stereo unspecified) |  | inconclusive: -48.1% [activator] |
| O=C(Nc1nc2ccccc2[nH]1)c1ccccc1F |  | inconclusive: -99.1% [activator] |
| CC1CCCN(C(=O)c2ccc(-c3ccccc3Cl)o2)C1 (stereo unspecified) | inconclusive: 3.16 µM [activator, partial curve, poor fit] |  |
| O=C(NCC1CCCO1)c1sc2ccccc2c1Cl (stereo unspecified) | inconclusive: 5.62 µM [activator, partial curve, poor fit] |  |
| CCOc1ccc(CCNC(=O)COC(=O)c2cccc(N(C)C)c2)cc1OCC | inconclusive: 1.58 µM [activator, full curve, poor fit] |  |
| Nc1ccccc1-c1nc2ccccc2[nH]1 | inconclusive: 3.16 µM [activator, full curve, poor fit] |  |
| O=c1oc2c(CN3CCOCC3)c(O)ccc2c2ccccc12 | active: 14.1 µM |  |
| COc1ccc(NC(=O)C=C(C)C)cc1Cl | inconclusive: 2.82 µM [activator, full curve, poor fit] |  |

— PubChem BioAssay AID624202 (National Center for Advancing Translational Sciences (NCATS), 2012)
